Measured values: the supplement of paper PMC11417369
± gives the standard deviation of the averaged measurements. The list shows a part of the results.

system: PfAP2-LT AP2 domain (GST-tagged); assay: gcPBM binding intensity (ln(normalized median fluorescence intensity)); higher = stronger DNA binding
Outline: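 Binding intensity values are the highest Masliner-normalised natural-log median intensity among replicate spots of either probe orientation. The binding step lasted 1 h in 1× PBS with 1% milk, 0.2 mg/ml BSA, 0.5% salmon testes DNA and 0.03% Triton X-100, using GST-tagged P. falciparum DNA-binding domains expressed in E. coli on an Agilent 4 × 180k array of primer-extended double-stranded 36-bp intergenic genomic probes plus negative controls. Alexa488 anti-GST antibody and a 488 nm scan detected bound protein.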

Row | Sequence | gcPBM binding intensity (ln)
1 | ATATATATATATATATGTACATATTTTATAACTGTA [XGTACX_site5395] | 9.72 ± 0.35
2 | ATTTATACATATAAACGTACATACATATATAATATT [XGTACX_site2969] | 8.75 ± 0.4
3 | AACATAAAACGTAATATATTACAAATATAAACAATC [CACACA_negctrl_site1675] | 9.16 ± 0.48
4 | TTACCATTTGAAAATTCACACACTTTATTTTGTTAT [CACACA_site3799] | 9.04 ± 0.52
5 | GTAAGCATAAATATATGTACATACATATACAGATAT [XGTACX_site3361] | 9.11 ± 0.42
6 | ATATATATATATATATGTACATAATATATGTCCTAT [XGTACX_site5087] | 9.635 ± 0.0071
7 | TAAGATAAAAAAAATGCATGTTCTTATAATATTGTC [TGCATGCA_site939] | 8.61 ± 0.36
8 | ATTATATCATCTAAAACATGCACACATATGTACTCT [TGCATGCA_site949] | 9.43 ± 0.38
9 | GTTGAGAAAATATGTGCATGTCAGGTTAAATTTTTA [TGCATGCA_site744] | 8.71 ± 0.52
10 | GGTGATATAATATATACATGCACATATATATTATTA [TGCATGCA_site970] | 8.82 ± 0.37
11 | TATGGAAATATATATTGTACGTATGACCTTTAAAAA [XGTACX_site3935] | 8.64 ± 0.43
12 | TTTATATGTATGAAGTGTACACATATATTGTATTTT [XGTACX_site5731] | 8.93 ± 0.45
13 | TTACAAAAAAATAATTGTACATACAATTTCTGTTAT [XGTACX_site877] | 8.71 ± 0.45
14 | ATTAGTTTACACATATGTACATATATTACAACAAAA [XGTACX_site275] | 8.65 ± 0.32
15 | TTTATAATAAAATTTTTACACACTTTAAAAAAAAAA [CACACA_site8070] | 8.18 ± 0.46
16 | AATATTCGTAATTGATGTACTTGTAATTCATACATT [XGTACX_site8314] | 8.95 ± 0.5
17 | TTTTTTTCAATATTTGCACACGATTATAATATTTAA [CACACA_site2237] | 8.89 ± 0.45
18 | CAGAATAATTTTATCGGTACACACTGTATGCATAAT [XGTACX_site736] | 9.02 ± 0.34
19 | TATAATAAAAATAATACACACATATATAGCAATCGT [CACACA_site3241] | 9.24 ± 0.33
20 | AATAAATATCTGTACACACACAAATAAATACATATC [CACACA_site5108] | 9.63 ± 0.33
21 | TTTATGTATTTTTATGCACACATGCGTGGCTTATAT [CACACA_site4374] | 9.26 ± 0.31
22 | TACGGACATACTAACGGACACACGTAAGAAAAAAAA [CACACA_site602] | 9.03 ± 0.56

Row | Sequence | gcPBM binding intensity (ln)
23 | TTTTATTAAAACCACGCATGCAGAGGAAACGGTGAG [TGCATGCA_site1029] | 8.98 ± 0.37
24 | ATATATAATTTTTGCTGTACACAAAATATTAATTTA [XGTACX_site2057] | 8.54 ± 0.35
25 | AATAAAAATAATGAATGTACATATATATATACAATA [XGTACX_site3342] | 8.91 ± 0.47
26 | ATATATAACGTGCACACACACATTTACGTATGAATA [CACACA_site6948] | 9.51 ± 0.2
27 | TATGACATATCCTGTAGTACAACGTATATATAAGAT [XGTACX_site1327] | 9.03 ± 0.32
28 | CATAAAATATAAAACACACACACATATATATATATA [CACACA_site223] | 10.1 ± 0.28
29 | TTCCATGTAGGACATGCATGCAGTTTTTAAAATATT [TGCATGCA_site481] | 8.82 ± 0.36
30 | AAATTTTTTATTCTAATTAATATTTACACAATATAT [TGCATGCA_negctrl_site376] | 8.57 ± 0.39
31 | TATTATATAAATATACGTACATATACTAACCTTTTA [XGTACX_site6317] | 8.71 ± 0.53
32 | TCAAAAAATATATTTGCACACTCAAAAAAAAAAAAA [CACACA_site860] | 8.71 ± 0.39
33 | TACACACATTACAGATGTACATAAAATTAAAAAAAT [XGTACX_site1804] | 9.13 ± 0.56
34 | TATATATATATAAATACATGCATATAATTAATCCAT [TGCATGCA_site400] | 8.9 ± 0.28
35 | CGACAAAAATTTTACAGTACAGTATAAACCTTTTTA [XGTACX_site290] | 8.51 ± 0.42
36 | TTTTTCACATTTCAGTGTACATTTTAATCATATATA [XGTACX_site915] | 8.74 ± 0.44
37 | AAAAAAAAAAAAAAAAAAATATATTATATATATATA [XGTACX_negctrl_site467] | 8.55 ± 0.52
38 | ATTCCAAAAAAATCAAGTACTAATTTATTATATTAC [XGTACX_site3920] | 8.48 ± 0.4
39 | ATTTTTTTTTTTTTTTTAAGACAAACTCTTAATTTA [CACACA_negctrl_site1389] | 8.32 ± 0.52
40 | TATTTTTTTAAGTGCAGTACACTTAATTTCCCCCAA [XGTACX_site7328] | 8.59 ± 0.14
41 | TAAAAATAAAGAAAATGTACATAAATAAAAATAAAG [XGTACX_site2279] | 8.88 ± 0.5
42 | TATATATATACATAATGTACAAGAATTTGTATTGAA [XGTACX_site627] | 8.74 ± 0.45
43 | ACAGGAGTATAACCTCGTACAAAATATATTTACCAT [XGTACX_site5805] | 8.99 ± 0.49
44 | CCTAGAAAAGCATATACACACGCGCAAAATAAAATT [CACACA_site4902] | 9.32 ± 0.4

Row | Sequence | gcPBM binding intensity (ln)
45 | TCTTTAAAAAAAAAAAAAAAAAATTCCAAATAAATA [TGCATGCA_negctrl_site538] | 7.83 ± 0.44
46 | AAAAAGCAGGATTATACACACAAATATATATATGTT [CACACA_site1077] | 9.07 ± 0.38
47 | TATATAAATTTAATAACACACATATAAAAATGAATT [CACACA_site2366] | 8.76 ± 0.4
48 | ATTTTTTTTTTTTTTATTCCCCTTTCGAAAAAAACC [CACACA_negctrl_site1139] | 8.54 ± 0.44
49 | TTTTATAATAAGTATGTAAAAATTATATATATATAT [CACACA_negctrl_site711] | 8.79 ± 0.2
50 | AACTTGTATATATACACACACACACTATCTTTTTTT [CACACA_site8601] | 9.71 ± 0.3
51 | ATATGTTTACGTAAATGTACACGTCAGTATATTTCT [XGTACX_site8199] | 9.08 ± 0.4
52 | ATATATATATAACATTGTACACACAAAGAAATAATA [XGTACX_site6440] | 9.21 ± 0.41
53 | GCAACAAAAAATCAGACATGCATTTTAAAATGAATA [TGCATGCA_site846] | 8.81 ± 0.52
54 | ACACATTATAAAACTGTCGCTCATAAAGAAGAATGA [CACACA_negctrl_site999] | 9.03 ± 0.42
55 | CATATTGAATATTTAACACACATTTCGCTTAATTCA [CACACA_site2086] | 8.87 ± 0.4
56 | TTATATATAAAATACTGTACATTTAATTGATGGTTT [XGTACX_site2073] | 8.67 ± 0.41
57 | TATAAAAAAAAAATTTGTACATAATAATATATATAT [XGTACX_site2074] | 8.63 ± 0.34
58 | GAATGAATTGTTATTAGTACACATGTGAATTATAAA [XGTACX_site6790] | 8.76 ± 0.45
59 | CTTTTATATGTCTAATGTACGGGCAATATAAATTTG [XGTACX_site8323] | 8.54 ± 0.47
60 | AAAAAAAACGGACACACACACATAAATATATATAAA [CACACA_site4260] | 9.86 ± 0.34
61 | AAAAGGTATAGAAACACACACACGTGAATATAGTTT [CACACA_site1905] | 9.56 ± 0.32
62 | ATATTTTATTTTAATACACACAAGTTATATAATCAC [CACACA_site780] | 8.9 ± 0.4
63 | CACACCCACCAACACACACACAAAAAAAAAAAGAAA [CACACA_site500] | 9.56 ± 0.47
64 | AAAAAAAAAAAAAGTGCACACATAAAAATATGATCT [CACACA_site8090] | 9.23 ± 0.4
65 | TACAAATTTATATAAAGTACAAAAAATAATAAAAAT [XGTACX_site7355] | 8.84 ± 0.34
66 | ACATATGTTTTATGTAGTACTTATTTATTATTATAT [XGTACX_site7528] | 8.9 ± 0.38

Row | Sequence | gcPBM binding intensity (ln)
67 | TTGTTCGATATATGCACACAGTTTTGTTATTTTTCC [CACACA_site4972] | 9.27 ± 0.45
68 | ATGAATAAATAGGTCACACACAAATATATATAAATA [CACACA_site2416] | 9.38 ± 0.43
69 | CACTACACTGTTAATAGTACATATATTTAAAAAAAA [XGTACX_site7371] | 8.62 ± 0.52
70 | AGTTAATGAATAGGCACACATATATCTGTATAAATA [CACACA_site4448] | 9.04 ± 0.44
71 | AGAAAAAAAAAAAGTACACACATATAATATATATAT [CACACA_site2973] | 9.09 ± 0.47
72 | TCAAATAATAAGTATGCATGCTATATTTATATATAC [TGCATGCA_site920] | 8.86 ± 0.31
73 | TACATTTTACTTGTTACACACATATAAAATTAACCA [CACACA_site2922] | 8.85 ± 0.35
74 | AAACGTACATAATACACACACATGTATACCTATAAA [CACACA_site7051] | 9.54 ± 0.3
75 | ATAAAAAATAAAATAAATAAAAAATATTTACCCTTA [TGCATGCA_negctrl_site396] | 8.42 ± 0.45
76 | GGATTTATTATATATACACACATACAGATATATATA [CACACA_site5222] | 8.91 ± 0.33
77 | TAAAAAAATAAATATACACACATATATATATATATA [CACACA_site1089] | 9.61 ± 0.47
78 | TGTAGAAATGGGTGCACACACATATAAAATCTATAT [CACACA_site7224] | 9.33 ± 0.4
79 | TCATTAAAAACTAAAAGTACTCAATATTATGAACAT [XGTACX_site7807] | 8.46 ± 0.42
80 | CATATATATTTGTTCACACACACACTAGAAAAAAAA [CACACA_site5380] | 9.49 ± 0.37
81 | AAACAAAATTTATTTCAAAGTTAATAATTTTTATGT [CACACA_negctrl_site232] | 8.23 ± 0.48
82 | ACATCATATTAAGAAAGTACAAAAAGAGAACATATA [XGTACX_site1268] | 8.98 ± 0.47
83 | ATATTGTAGATATTGTGTACATATTTTACAACTTTT [XGTACX_site7621] | 8.94 ± 0.35
84 | TATGTACACCCATATACACACCTCTATAATATATAT [CACACA_site4563] | 9.14 ± 0.3
85 | ATATTAATTTCTTATGCATGTTCTACCAAATTGTAT [TGCATGCA_site38] | 9.04 ± 0.3
86 | AAAAAAAATAAAAATAGTACTCAAAAAATTATGAAT [XGTACX_site3073] | 8.53 ± 0.54
87 | GATATGATATGATATGCATGTAACAAATTTTTTTAA [TGCATGCA_site268] | 8.62 ± 0.49
88 | AAAAAAAAATATATATATATATATATATTTATGTAT [GTGCAC_negctrl_site483] | 9.02 ± 0.21
